Experimental data from the supplement of paper PMC3334620.
The full ranking holds about 33,000 sequences; the median of “E-score (-0.5 to 0.5)” is about -0.04, and the highest 2% start at about 0.36. The list shows a part of the results.

What follows are sequences tested against T1, Hmlalpha2 (UniProt P0CY09) (assay: PBM E-score (8-mer binding enrichment) (E-score (-0.5 to 0.5)); higher = stronger / more preferred TF binding; most listed sequences are background and not binding sites). Details: protein concentration: 200 nM; construct: GST-full length.
T1 sequence: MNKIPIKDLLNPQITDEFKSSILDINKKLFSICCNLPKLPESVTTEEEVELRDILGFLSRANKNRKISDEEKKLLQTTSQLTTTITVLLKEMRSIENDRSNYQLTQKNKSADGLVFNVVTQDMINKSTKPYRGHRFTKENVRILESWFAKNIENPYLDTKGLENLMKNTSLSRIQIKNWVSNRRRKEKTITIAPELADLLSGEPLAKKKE
Outline: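 Yeast transcription factors carrying a GST tag, as full-length proteins or DNA-binding domains, were produced by PURExpress in vitro transcription/translation. About 100-200 nM protein was applied to universal all-10-mer Agilent arrays, double-stranded by primer extension on fresh or once-stripped slides. Bound protein was detected with fluorescent anti-GST, and scans were normalised with masliner. The Universal PBM Analysis Suite gave each ungapped eight-base word, pooled with its reverse complement, an E-score, a modified Wilcoxon-Mann-Whitney statistic.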

Row | Sequence | PBM E-score
1 | CAGTCTCG | -0.142
2 | ATACGCGA | 0.346
3 | ACCGTTGA | -0.148
4 | CTGACCCC | -0.308
5 | ACACTTAT | 0.0619
6 | CACTTCAG | -0.031
7 | AATCCTCT | 0.00028
8 | ACCGTACT | -0.0265
9 | CATATCGA | -0.0723
10 | CAGGCGGC | -0.169
11 | GGTTGGGA | -0.224
12 | CTCAACAC | 0.382
13 | AACACAGC | 0.379
14 | CGGCTTGC | 0.0109
15 | CCACTCCC | -0.404
16 | ATCTATAC | 0.0772
17 | GACATCAA | 0.0495
18 | CTCCCGCA | -0.176
19 | GGTAGTAC | -0.0481
20 | ACCCACCC | -0.0404
21 | TGAAAACA | 0.317
22 | AGAAAGCA | 0.0106
23 | AACACAAG | 0.326
24 | ACTTGTGA | 0.148
25 | ATTCGAGA | -0.0114

Row | Sequence | PBM E-score
26 | AAGGTATG | 0.0872
27 | GGAAGGAA | -0.243
28 | AGTCCCTC | -0.253
29 | GCCCGAAC | -0.268
30 | ACTCCGTC | -0.0399
31 | CCTCAACC | -0.0829
32 | AGCTAGCC | -0.134
33 | AAGTGGGA | 0.0175
34 | CTCTCGGC | -0.226
35 | GAGAAAGA | -0.108
36 | TCTAGGAA | -0.134
37 | CGAAAACC | 0.0241
38 | CGTTAACC | 0.241
39 | AATATTAT | 0.189
40 | AGCCATCA | -0.055
41 | GACTGAAA | -0.0472
42 | AGATACTA | -0.161
43 | AGGCCCTA | -0.127
44 | GAACAGCC | -0.178
45 | ACATTCGG | 0.133
46 | ACTAGTAA | 0.235
47 | AGAGTCAC | -0.124
48 | CACTTGGA | -0.0936
49 | CAGGTAGG | -0.225
50 | TGACTACA | 0.286

Row | Sequence | PBM E-score
51 | AACCATAC | -0.176
52 | CTCCCTCC | -0.389
53 | CAACTGCG | -0.126
54 | GAGCAAAA | -0.094
55 | ATCCAGGA | -0.118
56 | CACTACGC | 0.0484
57 | GGCGAAAC | -0.0216
58 | TGGATCCA | -0.063
59 | GTAGATGA | 0.192
60 | GATCCCAC | -0.174
61 | ATTTGCGC | 0.055
62 | AGTGTTAT | 0.269
63 | AATCTTAG | -0.0585
64 | AAAGAGGG | -0.174
65 | AGCGCTAC | -0.045
66 | CTGCCATA | -0.218
67 | AGCATATC | -0.0175
68 | AATATTGT | 0.23
69 | GCGTTTGA | 0.00157
70 | AATCTAAC | 0.16
71 | TAACCATA | 0.0693
72 | ATGATCCA | -0.191
73 | ACACCATA | 0.0945
74 | CCCATCTA | -0.109
75 | ACTACGTA | 0.212

Row | Sequence | PBM E-score
76 | CTACGTGA | 0.123
77 | CCCGAGAG | -0.302
78 | CCCAACTA | -0.132
79 | AATTCGCC | 0.0749
80 | GCGGGCAA | -0.0844
81 | ATAGCTGC | 0.0853
82 | CATTCGTC | 0.0074
83 | CTAAGTCA | -0.0652
84 | GGTTGGCA | -0.1
85 | CGGGAACA | 0.145
86 | AAATAGAG | 0.149
87 | CCAAGCTA | -0.0808
88 | GACGCCAA | -0.122
89 | AACGACAG | 0.0793
90 | GAAGAGTA | 0.109
91 | CCCAGAAA | -0.0348
92 | GGGCAAAC | -0.217
93 | TAGCCGGA | -0.132
94 | CTCGGCAC | -0.14
95 | ACGTGTGG | 0.136
96 | CGTTCTGC | 0.0488
97 | AAGGCTAC | -0.0947
98 | AGTTGTGG | 0.0715
99 | ACCAAGCC | 0.0443
100 | AAACGAGC | 0.202

Row | Sequence | PBM E-score
101 | ACACGTCT | 0.368
102 | CTTGTACA | 0.403
103 | ATTCACCA | 0.0468
104 | CTACACCA | 0.165
105 | CCAACATC | 0.0583
106 | AAACCGCT | -0.137
107 | ACATGGTC | 0.308
108 | CCTGAGCC | -0.329
109 | AGTTTAAT | 0.165
110 | TCTTGGCA | -0.00388
111 | AATCTAAG | 0.0435
112 | CATCCGTA | -0.0518
113 | CCGCCAAG | -0.198
114 | CACACGTG | 0.289
115 | GAGCACCA | -0.211
116 | ACAAGACG | 0.102
117 | CGCCTGGC | -0.0832
118 | AGGGGTGG | -0.405
119 | GATCAAGC | 0.134
120 | CAAGACTG | 0.0396
121 | GGTGGAGA | -0.326
122 | CAATAGTG | -0.0769
123 | CAGATTGA | 0.00811
124 | GGAAAGCA | -0.112
125 | CTGGTGAC | -0.28

Row | Sequence | PBM E-score
126 | AGAAACTG | 0.00819
127 | GGCAATAA | -0.0126
128 | CTCCTGCC | -0.274
129 | CGAACTGC | -0.08
130 | CGACTTAA | 0.118
131 | TGTCGAAA | 0.315
132 | ATCTAGTG | -0.0896
133 | AGTAAGGG | -0.0977
134 | ATTGGAAG | -0.0294
135 | GCACAATA | 0.0119
136 | ATGTATCC | 0.294
137 | GATGCGAA | -0.0115
138 | GGCTCGCA | -0.23
139 | ACCCTGCC | -0.298
140 | ATACCATG | 0.189
141 | ACAAATCT | 0.146
142 | AGGAATAA | 0.0409
143 | CCGATTTA | -0.0594
144 | ACCTAAGA | 0.127
145 | GATCCTCA | -0.0487
146 | AGGGCACA | -0.173
147 | AGCATGAT | 0.0873
148 | CAGTCTCA | -0.0494
149 | ATGCCAGC | -0.0679
150 | GGGATCCC | -0.263

Row | Sequence | PBM E-score
151 | AGTAACAT | 0.295
152 | ATGGACGC | 0.114
153 | AGACGTAG | 0.0145
154 | ACCTACGC | 0.0927
155 | AAGGCCGA | -0.128
156 | CGCGAACG | -0.0434
157 | AGCTGACC | -0.141
158 | GAATAGGC | -0.168
159 | CGGCCTCC | -0.3
160 | AAACGATC | -0.0778
161 | GCTGGAAA | 0.0463
162 | CATTTCAA | 0.18
163 | GAGGCATA | -0.149
164 | TGCCTGAA | 0.0147
165 | AATCTCCG | -0.278
166 | AGGAATAG | -0.0262
167 | CTCCGATC | -0.266
168 | ACTCACAG | -0.126
169 | CTCGGCCC | -0.296
170 | ATCGCCTC | -0.0718
171 | ATAAACCA | 0.0582
172 | AAAGTATC | 0.119
